The results in this text go back to PubChem BioAssay (NCI).

SMILES strings stand for the structures. “And” between values parts separate entries of the source, which are not always exact repeats. Equal values may be shown once.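 These data come from cells grown in 96-well plates and exposed to compound for 48 hours at five concentrations. Abbreviation: GI50, concentration required for 50% inhibition of growth. TGI marks complete inhibition of growth.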 Some results are limits rather than exact numbers.

In the test the test system is NCI-H322M lung. Nature of the test: growth of human tumour cells (NCI), 48 h.
Regarding `O=C1c2ccccc2-c2ccc(N=[N+]([O-])c3ccc4c(c3)C(=O)c3ccccc3-4)cc21`, the TGI is > 100 µM.

On to `C[C@]12CC(c3ccccc3O1)C(C(=O)NC13CC4CC(CC(C4)C1)C3)C(=O)N2` (some centres not stated), for which the TGI worked out at 45.5 µM.

The compound `CCN(CC)CCS(=O)c1c2cc(OC)ccc2nc2ccc(OC)cc12` (configuration not stated) gave a TGI of 32.9 µM.

In turn, `COc1ccc(OC)c2nc3c(C(=O)NCCN(C)C)cccc3nc12` registered a TGI of 25.5 µM.

`CCOC(=O)C(=O)Nc1c(N(CC)CC)n2ccccc2nc1=O`: the TGI is > 100 µM.

Turning to `Nc1ccccc1C#C/C=C\C#Cc1ccc(Cl)cc1Cl`, the GI50 was 10.4 µM and the TGI was determined as 28.9 µM.

`CC(=O)c1ccc2c(c1)oc(=O)n2CCN1CCCCC1`: the TGI was > 100 µM.

With `COc1ccc(-c2cn[nH]c2-c2cc(OC)c(OC)c(OC)c2)cc1N`, the GI50 was 0.0622 µM and 0.0988 µM; the TGI was > 100 µM.

As to `CC1=C(OC2OC(CO)C(O)C(O)C2O)C(=O)C[C@H]2C1=CC[C@@H]1[C@@]2(C)C(=O)C[C@]2(C)[C@@H]([C@@](C)(O)C(=O)CCC(C)(C)O)[C@H](O)C[C@@]12C` (some centres not stated), the TGI was > 100 µM.

Compound `CC(=O)OCC1OC(O[C@@H]2c3c(O)c4c(c(O)c3C3=C(NN(c5ccc([N+](=O)[O-])cc5[N+](=O)[O-])[Se]3=O)[C@@]2(C)O)C(=O)c2ccccc2C4=O)C(OC(C)=O)C(OC(C)=O)C1OC(C)=O` (some centres not stated) registered a TGI of 1.36 µM.

`CC1(C)OCC(C2OC(N3O[C@H](CI)C[C@@H]3c3ccccc3)C3OC(C)(C)OC23)O1` (some centres not stated): the TGI was > 100 µM.

Consider `C=C1CC[C@@H]2C(C)(C)CCC[C@@]2(C)[C@@H]1Cc1cc(O)ccc1O`, for which the TGI is 30.3 µM.

In turn, `S=C1N(c2ccc(Cl)cc2)C2=C(N=Nc3ccccc3)C(=Nc3ccccc3S2)N1c1ccccn1` returned a TGI of 26.5 µM.

On to `c1ccc(CCN(Cc2nc3ccccc3[nH]2)Cc2nc3ccccc3[nH]2)cc1`, for which the TGI was 49 µM.

Turning to `CC1[C@@H](OCc2ccccc2)COC(=O)N1Cc1ccccc1` (some centres not stated), the TGI is > 100 µM.
